Laboratory results: the antibiotic and cytotoxicity screens of Wong et al. (2023)
This is one part of the list.

How the values were obtained:
HSkMC = human skeletal muscle cells; experiment: cytotoxicity call (relative viability < 0.9); details: 10 µM
HepG2 = experiment: cytotoxicity call (relative viability < 0.9); details: 10 µM
S. aureus RN4220 = experiment: growth inhibition call (relative growth <= 0.2); details: 50 µM

C[C@@H]1CN([C@@H](C)CO)C(=O)c2cc(C#CCN(C)C)cnc2O[C@@H]1CN(C)Cc1ccc(C(=O)O)cc1
inactive: cytotoxicity call (HSkMC) | cytotoxicity call (HepG2) | growth inhibition call (S. aureus RN4220)

CCOC(=O)C1=C(C)NC(C)=C(C(=O)OC)C1c1cccc([N+](=O)[O-])c1 (stereo unspecified)
inactive: cytotoxicity call (HSkMC) | cytotoxicity call (HepG2) | growth inhibition call (S. aureus RN4220)

C=C[C@H]1CCC=C2C(=O)CCC[C@@H]21
inactive: cytotoxicity call (HSkMC) | cytotoxicity call (HepG2) | growth inhibition call (S. aureus RN4220)

C[C@H]1CN([C@@H](C)CO)C(=O)c2cccc(NC(=O)Nc3ccc(F)cc3)c2O[C@@H]1CN(C)CC1CCCCC1
inactive: cytotoxicity call (HSkMC) | cytotoxicity call (HepG2) | growth inhibition call (S. aureus RN4220)

C[C@H](CO)N1C[C@H](C)[C@H](CN(C)CC2CCCCC2)Oc2c(NC(=O)c3ccc(-c4nccs4)cc3)cccc2C1=O
inactive: cytotoxicity call (HSkMC) | cytotoxicity call (HepG2) | growth inhibition call (S. aureus RN4220)

C[C@H](CO)N1C[C@H](C)[C@@H](CN(C)S(=O)(=O)c2ccccc2)Oc2ncc(-c3cccc(C(=O)N(C)C)c3)cc2C1=O
inactive: cytotoxicity call (HSkMC) | cytotoxicity call (HepG2) | growth inhibition call (S. aureus RN4220)

C[C@H](CO)N1C[C@H](C)[C@H](CN(C)Cc2ccc3c(c2)OCO3)Oc2c(NC(=O)C3CC3)cccc2C1=O
inactive: cytotoxicity call (HSkMC) | cytotoxicity call (HepG2) | growth inhibition call (S. aureus RN4220)

C[C@@H]1CN([C@H](C)CO)C(=O)Cc2cc(NC(=O)Cn3cnnn3)ccc2O[C@@H]1CN(C)C(=O)Nc1ccc(F)cc1
inactive: cytotoxicity call (HSkMC) | cytotoxicity call (HepG2) | growth inhibition call (S. aureus RN4220)

O=C(C[C@@H]1C[C@H]2c3cc(NC(=O)C4CCOCC4)ccc3O[C@H]2[C@@H](CO)O1)NCCN1CCCCC1
inactive: cytotoxicity call (HSkMC) | cytotoxicity call (HepG2) | growth inhibition call (S. aureus RN4220)

C[C@@H]1CN([C@H](C)CO)C(=O)Cc2cc(NC(=O)c3ccncc3)ccc2O[C@@H]1CN(C)S(C)(=O)=O
inactive: cytotoxicity call (HSkMC) | cytotoxicity call (HepG2) | growth inhibition call (S. aureus RN4220)

COc1ccc(NC(=O)Nc2ccc3c(c2)C(=O)N([C@@H](C)CO)C[C@@H](C)[C@@H](CN(C)C(=O)Nc2ccc(OC)cc2)OCCCC[C@H](C)O3)cc1
inactive: cytotoxicity call (HSkMC) | cytotoxicity call (HepG2) | growth inhibition call (S. aureus RN4220)

C[C@@H]1CN([C@H](C)CO)C(=O)c2cc(NS(C)(=O)=O)ccc2O[C@H]1CN(C)C(=O)Nc1ccc(F)cc1
inactive: cytotoxicity call (HSkMC) | cytotoxicity call (HepG2) | growth inhibition call (S. aureus RN4220)
